In the supplement of paper PMC4967469:
IC50 is the fitted dose that halves viability relative to control wells, and lower means more sensitive; fits outside the tested doses are given as limits. AUC, from the same fit, is the share of area under the viability curve across the 256-fold dose range: 1 means no effect, lower means more sensitive. For part of these data: A top dose marked as inferred was calculated from the reported fits.

Legend:
Assay in all cases: Viability of human cancer cell lines after 72 h of drug (GDSC screen)
[1] = compound: COC1=CC(c2cc3ccccc3[nH]2)=N/C1=C\c1[nH]c(C)cc1C [Obatoclax mesylate]; details: top dose 16 µM
Method: (§1)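 Human cancer cell lines in 384-well plates, medium with 10% serum, drug for 72 h over a 256-fold dose range (nine 2-fold or five 4-fold steps up to the top dose). Adherent lines were fixed and stained with the nucleic acid dye Syto60, suspension lines read with resazurin; signal relative to control wells, capped at 0 and 100%. One two-parameter sigmoid per drug and line, fitted in a mixed model over all curves with the slope shared within a line.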

[2] = compound: COCC(=O)NC/C=C/c1ccc2ncnc(Nc3ccc(Oc4ccc(C)nc4)c(C)c3)c2c1 [CP724714]; details: top dose 10.24 µM; top dose inferred
Method: as §1

[3] = compound: Cc1cccc(Nc2nc(-c3ccncc3)cs2)c1 [STF-62247]; details: top dose 10.24 µM; top dose inferred
Method: as §1

[4] = compound: Cc1cnc(CNC(=O)c2c(=O)c3ccc(N4CCCN(C)CC4)nc3n3c2sc2ccccc23)cn1 [CX-5461]; details: top dose 10.24 µM; top dose inferred
Method: as §1

Row | Cell Line | AUC [1] | IC50 [1] [µM] | AUC [2] | IC50 [2] [µM] | AUC [3] | IC50 [3] [µM] | AUC [4] | IC50 [4] [µM]
1 | HCC1395 (breast, adherent) | 0.621 | 2.31 | 0.981 | > 10.2 | 0.981 | > 10.2 | 0.977 | > 10.2
2 | HCC1419 (breast, adherent) | 0.665 | 3.5 | 0.73 | 3.89 | 0.949 | > 10.2 | 0.981 | > 10.2
3 | HCC1428 (breast, adherent) | 0.343 | 0.35 | 0.979 | > 10.2 | 0.987 | > 10.2 | 0.987 | > 10.2
4 | HCC1500 (breast, adherent) | 0.406 | 0.546 | 0.972 | > 10.2 | 0.988 | > 10.2 | 0.981 | > 10.2
5 | HCC1569 (breast, adherent) | 0.163 | < 0.0625 | 0.945 | > 10.2 | 0.959 | > 10.2 | 0.968 | > 10.2
6 | HCC1806 (breast, adherent) | 0.176 | 0.117 | 0.986 | > 10.2 | 0.923 | > 10.2 | 0.864 | 7.76
7 | HCC1937 (breast, adherent) | 0.431 | 0.627 | 0.978 | > 10.2 | 0.982 | > 10.2 | 0.956 | > 10.2
8 | HCC1954 (breast, adherent) | 0.619 | 2.25 | 0.853 | 10.2 | 0.984 | > 10.2 | 0.981 | > 10.2
9 | HCC-15 (lung squamous cell carcinoma, adherent) | 0.447 | 0.688 | 0.975 | > 10.2 | 0.979 | > 10.2 | 0.978 | > 10.2
10 | HCC-44 (lung adenocarcinoma, adherent) | 0.125 | 0.0658 | 0.981 | > 10.2 | 0.938 | > 10.2 | 0.496 | 0.623
11 | HCC-56 (large intestine, adherent) | 0.427 | 0.628 | 0.878 | > 10.2 | 0.987 | > 10.2 | 0.962 | > 10.2
12 | HCC-78 (lung adenocarcinoma, adherent) | 0.533 | 1.25 | 0.968 | > 10.2 | 0.983 | > 10.2 | 0.962 | > 10.2
13 | HCC-827 (lung adenocarcinoma, adherent) | 0.24 | 0.155 | 0.916 | > 10.2 | 0.984 | > 10.2 | 0.985 | > 10.2
14 | HCT-15 (large intestine, adherent) | 0.214 | 0.136 | 0.972 | > 10.2 | 0.984 | > 10.2 | 0.71 | 2.62
15 | HCT-116 (large intestine, adherent) | 0.174 | 0.11 | 0.977 | > 10.2 | 0.967 | > 10.2 | 0.774 | 3.82
16 | HDQ-P1 (breast, adherent) | 0.554 | 1.44 | 0.981 | > 10.2 | 0.964 | > 10.2 | 0.61 | 1.36
17 | HEC-1 (endometrium, adherent) | 0.223 | 0.161 | 0.987 | > 10.2 | 0.986 | > 10.2 | 0.989 | > 10.2
18 | HGC-27 (stomach, adherent) | 0.041 | < 0.0625 | 0.974 | > 10.2 | 0.98 | > 10.2 | 0.948 | > 10.2
19 | HL-60 (acute myeloid leukaemia, suspension) | 0.544 | 1.3 | 0.989 | > 10.2 | 0.99 | > 10.2 | 0.9 | > 10.2
20 | HLE (liver, adherent) | 0.223 | 0.165 | 0.944 | > 10.2 | 0.955 | > 10.2 | 0.958 | > 10.2
21 | HMV-II (melanoma, adherent) | 0.132 | < 0.0625 | 0.941 | > 10.2 | 0.98 | > 10.2 | 0.963 | > 10.2

Row | Cell Line | AUC [1] | IC50 [1] [µM] | AUC [2] | IC50 [2] [µM] | AUC [3] | IC50 [3] [µM] | AUC [4] | IC50 [4] [µM]
22 | HN (head and neck, adherent) | 0.097 | < 0.0625 | 0.988 | > 10.2 | 0.989 | > 10.2 | 0.989 | > 10.2
23 | HO-1-N-1 (head and neck, adherent) | 0.127 | 0.0755 | 0.987 | > 10.2 | 0.984 | > 10.2 | 0.933 | > 10.2
24 | HO-1-u-1 (head and neck, adherent) | 0.139 | 0.079 | 0.981 | > 10.2 | 0.976 | > 10.2 | 0.802 | 4.79
25 | HOP-92 (large cell lung carcinoma, adherent) | 0.3 | 0.249 | 0.973 | > 10.2 | 0.98 | > 10.2 | 0.985 | > 10.2
26 | HOS (osteosarcoma, adherent) | 0.124 | 0.0865 | 0.992 | > 10.2 | 0.991 | > 10.2 | 0.964 | > 10.2
27 | HPAC (pancreas, adherent) | 0.559 | 1.54 | 0.978 | > 10.2 | 0.976 | > 10.2 | 0.744 | 4.37
28 | HPAF-II (pancreas, adherent) | 0.603 | 2.09 | 0.978 | > 10.2 | 0.978 | > 10.2 | 0.931 | > 10.2
29 | HSC-2 (head and neck, adherent) | 0.067 | < 0.0625 | 0.982 | > 10.2 | 0.989 | > 10.2 | 0.989 | > 10.2
30 | HSC-3 (head and neck, adherent) | 0.037 | < 0.0625 | 0.989 | > 10.2 | 0.99 | > 10.2 | 0.99 | > 10.2
31 | HSC-4 (head and neck, adherent) | 0.453 | 0.713 | 0.966 | > 10.2 | 0.979 | > 10.2 | 0.976 | > 10.2
32 | HT55 (large intestine, adherent) | 0.677 | 3.12 | 0.99 | > 10.2 | 0.99 | > 10.2 | 0.99 | > 10.2
33 | HT-3 (cervix, adherent) | 0.523 | 1.15 | 0.97 | > 10.2 | 0.977 | > 10.2 | 0.966 | > 10.2
34 | HT-29 (large intestine, adherent) | 0.109 | < 0.0625 | 0.974 | > 10.2 | 0.946 | > 10.2 | 0.949 | > 10.2
35 | HT-115 (large intestine, adherent) | 0.902 | > 16 | 0.946 | > 10.2 | 0.989 | > 10.2 | 0.991 | > 10.2
36 | HT-1080 (fibrosarcoma, adherent) | 0.391 | 0.519 | 0.989 | > 10.2 | 0.979 | > 10.2 | 0.963 | > 10.2
37 | HT-1197 (bladder, adherent) | 0.364 | 0.391 | 0.977 | > 10.2 | 0.985 | > 10.2 | 0.982 | > 10.2
38 | HT-1376 (bladder, adherent) | 0.233 | 0.143 | 0.984 | > 10.2 | 0.985 | > 10.2 | 0.985 | > 10.2
39 | HTC-C3 (thyroid, adherent) | 0.174 | 0.0888 | 0.954 | > 10.2 | 0.983 | > 10.2 | 0.945 | > 10.2
40 | HeLa (cervix, adherent) | 0.403 | 0.55 | 0.979 | > 10.2 | 0.985 | > 10.2 | 0.964 | > 10.2
41 | Hep 3B2_1-7 (liver, adherent) | 0.034 | < 0.0625 | 0.971 | > 10.2 | 0.981 | > 10.2 | 0.986 | > 10.2
42 | Hs633T (fibrosarcoma, adherent) | 0.212 | 0.176 | 0.991 | > 10.2 | 0.985 | > 10.2 | 0.754 | 2.9

Row | Cell Line | AUC [1] | IC50 [1] [µM] | AUC [2] | IC50 [2] [µM] | AUC [3] | IC50 [3] [µM] | AUC [4] | IC50 [4] [µM]
43 | Hs683 (glioma, adherent) | 0.27 | 0.22 | 0.982 | > 10.2 | 0.979 | > 10.2 | 0.952 | > 10.2
44 | Hs766T (pancreas, adherent) | 0.371 | 0.393 | 0.983 | > 10.2 | 0.984 | > 10.2 | 0.984 | > 10.2
45 | Hs939-T (melanoma, adherent) | 0.29 | 0.24 | 0.986 | > 10.2 | 0.97 | > 10.2 | 0.986 | > 10.2
46 | Hs940-T (melanoma, adherent) | 0.109 | < 0.0625 | 0.972 | > 10.2 | 0.983 | > 10.2 | 0.984 | > 10.2
47 | Hs-578-T (breast, adherent) | 0.325 | 0.314 | 0.987 | > 10.2 | 0.987 | > 10.2 | 0.987 | > 10.2
48 | HuCCT1 (biliary tract, adherent) | 0.198 | 0.112 | 0.972 | > 10.2 | 0.964 | > 10.2 | 0.726 | 3.06
49 | HuH-7 (liver, adherent) | 0.29 | 0.256 | 0.975 | > 10.2 | 0.976 | > 10.2 | 0.987 | > 10.2
50 | HuO9 (osteosarcoma, adherent) | 0.673 | 3.22 | 0.984 | > 10.2 | 0.983 | > 10.2 | 0.983 | > 10.2
51 | HuO-3N1 (osteosarcoma, adherent) | 0.419 | 0.56 | 0.982 | > 10.2 | 0.981 | > 10.2 | 0.963 | > 10.2
52 | HuP-T3 (pancreas, adherent) | 0.434 | 0.632 | 0.969 | > 10.2 | 0.975 | > 10.2 | 0.886 | > 10.2
53 | HuP-T4 (pancreas, adherent) | 0.106 | < 0.0625 | 0.979 | > 10.2 | 0.932 | > 10.2 | 0.701 | 2.44
54 | IGR-1 (melanoma, adherent) | 0.03 | < 0.0625 | 0.99 | > 10.2 | 0.97 | > 10.2 | 0.708 | 2.26
55 | IGR-37 (melanoma, adherent) | 0.241 | 0.195 | 0.989 | > 10.2 | 0.953 | > 10.2 | 0.879 | 8.92
56 | IHH-4 (thyroid, semi-adherent) | 0.19 | 0.155 | 0.987 | > 10.2 | 0.992 | > 10.2 | 0.845 | 5.3
57 | IM-95 (stomach, adherent) | 0.24 | 0.167 | 0.95 | > 10.2 | 0.985 | > 10.2 | 0.96 | > 10.2
58 | IPC-298 (melanoma, adherent) | 0.197 | 0.129 | 0.982 | > 10.2 | 0.983 | > 10.2 | 0.806 | 5.09
59 | J82 (bladder, adherent) | 0.174 | 0.103 | 0.987 | > 10.2 | 0.985 | > 10.2 | 0.986 | > 10.2
60 | JEG-3 (urogenital system, adherent) | 0.575 | 1.57 | 0.985 | > 10.2 | 0.991 | > 10.2 | 0.991 | > 10.2
61 | JHH-1 (liver, adherent) | 0.232 | 0.153 | 0.858 | 9.58 | 0.985 | > 10.2 | 0.633 | 1.55
62 | JHH-2 (liver, adherent) | 0.773 | 6.72 | 0.985 | > 10.2 | 0.986 | > 10.2 | 0.733 | 3.13
63 | JHH-4 (liver, adherent) | 0.029 | < 0.0625 | 0.977 | > 10.2 | 0.958 | > 10.2 | 0.98 | > 10.2
